Experimental data published in patent US20220280527A1, “TRACE AMINE ASSOCIATED RECEPTOR 1 AGONISTS AND PARTIAL AGONISTS FOR PAIN TREATMENT” (Purdue Pharma L.P., priority 2016, published 2022).

How the values were obtained:
Sprague-Dawley rats [1] = assay: Rotarod performance; type: in vivo, rat; details: dosed orally at 3 mg/kg, 10 mg/kg, and 30 mg/kg
Experimental: The Rotarod test is used to evaluate motor coordination, strength, and balance. The animals are placed on the rotating rod of the device. The time during which an animal can maintain itself on said bar at an accelerating speed of 5-40 rpm is recorded. 300 seconds is the assay cut-off. Data are analyzed by a two-way ANOVA using a Bonferroni Multiple Comparisons test. […] In the experiment, male, Sprague-Dawley rats, 211-241 g (n=10/group) were tested on an accelerating rotarod (AccuScan; manual 5-40 rpm).

Sprague-Dawley rats [2] = assay: Hot plate test (nociceptive pain); details: IP, 3 mg/kg, 10 mg/kg, and 30 mg/kg, one hour prior to testing, hot plate 52° C.
Sprague-Dawley rats [3] = assay: Tail flick test (nociceptive pain); type: in vivo, rat; details: IP, 3 mg/kg, 10 mg/kg, and 30 mg/kg, one hour prior to testing

Row | Compound | rotarod performance (ataxia) (Sprague-Dawley rats [1]) | analgesic efficacy in the hot plate assay (Sprague-Dawley rats [2]) | analgesic efficacy in the tail flick assay (Sprague-Dawley rats [3])
1 | CC(C)N(Cc1cnc[nH]1)c1ccc(Cl)cc1 [Compound 1, N-((1H-imidazol-4-yl)methyl)-4-chloro-N-isopropylaniline] | did not produce ataxia | – | –
2 | CCN(CC1COC(N)=N1)c1ccccc1 (stereo not drawn) [Compound 2, 4-((ethyl(phenyl)amino)methyl)-4,5-dihydrooxazol-2-amine] | – | not efficacious as an analgesic | weak to marginal analgesic efficacy
